The supplement of paper PMC10369915
The list shows a part of the results. No stated cut-off is given here; in the data, active = 3.2 or more and inactive = the rest. Most of these values are background signal.

Experiments:
Test in all cases: enrichment score (SH2-bound / input frequency) (ratio); bacterial display of known human phosphotyrosine sites (pTyr-Var adds point mutants) read by sequencing; higher = stronger binding; tyrosines were phosphorylated by kinases first
Details in all cases: peptide library: pTyr-Var
[1] = target: SHP2 C-SH2 domain E139D
[2] = target: SHP2 C-SH2 domain wild-type
[3] = target: SHP2 N-SH2 domain L43F
[4] = target: SHP2 N-SH2 domain T42A
[5] = target: SHP2 N-SH2 domain T52S
[6] = target: SHP2 N-SH2 domain wild-type
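Further: displayed peptides selected on beads carrying the immobilized SH2 domain, with library peptides lacking any tyrosine serving as negative controls.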

| Binder | enrichment score [1] | enrichment score [2] | enrichment score [3] | enrichment score [4] | enrichment score [5] | enrichment score [6] |
| --- | --- | --- | --- | --- | --- | --- |
| PPAPRYHHLAV [LZTR1_Y119_S122L] | inactive: 2.57 | inactive: 2.07 | inactive: 3.16 | inactive: 1.9 | inactive: 2.56 | inactive: 2.76 |
| YTGDIYSSSNL [LZTR1_Y141_N143S] | inactive: 0.813 | inactive: 0.881 | inactive: 0.674 | inactive: 0.83 | inactive: 0.8 | inactive: 0.859 |
| FTGDIYSSSNL [LZTR1_Y141_N143S_YF] | inactive: 0.803 | inactive: 0.673 | inactive: 0.746 | inactive: 0.739 | inactive: 0.839 | inactive: 0.927 |
| FTGDIYSNSNL [LZTR1_Y141_YF] | inactive: 0.533 | inactive: 0.549 | inactive: 0.574 | inactive: 0.664 | inactive: 0.746 | inactive: 0.73 |
| HFGNNYRDVLQ [MACC1_Y803_YF] | inactive: 1.1 | inactive: 0.806 | inactive: 0.793 | inactive: 0.69 | inactive: 0.783 | inactive: 0.906 |
| LAETSYVKVLE [MAGEA1_Y276] | inactive: 1.05 | inactive: 3.16 | inactive: 0.762 | inactive: 2.01 | inactive: 0.871 | inactive: 0.97 |
| LAETSYVTVLE [MAGEA1_Y276_K278T] | inactive: 0.962 | inactive: 2.6 | inactive: 0.757 | inactive: 1.96 | inactive: 1.26 | inactive: 1.07 |
| REHTVYGEPRK [MAGEA4_Y240] | inactive: 0.735 | inactive: 0.781 | inactive: 0.551 | inactive: 0.673 | inactive: 0.585 | inactive: 0.831 |
| WGLRSYYETSK [MAGED2_Y448] | inactive: 1.13 | inactive: 1.1 | inactive: 1.61 | inactive: 1.09 | inactive: 1.49 | inactive: 1.21 |
| WGLCSYYETSK [MAGED2_Y448_R446C] | inactive: 1.28 | inactive: 1.96 | inactive: 1.22 | inactive: 1.31 | inactive: 0.845 | inactive: 1.56 |
| GLCSYYETSKM [MAGED2_Y449_R446C] | inactive: 0.864 | inactive: 1.25 | inactive: 0.945 | inactive: 0.881 | inactive: 0.949 | inactive: 1.35 |
| QRKRAYVEIEY [MAK16_Y282] | inactive: 0.759 | inactive: 0.427 | inactive: 0.501 | inactive: 1.11 | inactive: 0.564 | inactive: 0.429 |
| KVMANYVYKAG [MAML2_Y513_M514V] | inactive: 0.941 | inactive: 0.86 | inactive: 0.772 | inactive: 0.659 | inactive: 0.724 | inactive: 0.704 |
| MANYVYKAGPS [MAML2_Y515_M514V] | inactive: 0.575 | inactive: 0.844 | inactive: 0.629 | inactive: 0.703 | inactive: 0.707 | inactive: 0.772 |
| MANFMYKAGPS [MAML2_Y515_YF] | inactive: 1.17 | inactive: 0.915 | inactive: 1.4 | inactive: 1.17 | inactive: 1.03 | inactive: 1.08 |
| SFGESYDNSKS [MAN1B1_Y60_N59S] | inactive: 0.62 | inactive: 0.555 | inactive: 0.612 | inactive: 0.501 | inactive: 0.528 | inactive: 0.569 |
| LQFKNYQQLFD [MAN2A1_Y442] | inactive: 0.709 | inactive: 0.588 | inactive: 0.883 | inactive: 0.899 | inactive: 0.763 | inactive: 0.911 |
| TNGFTYGSSHQ [MANEA_Y331] | inactive: 0.713 | inactive: 0.554 | inactive: 0.764 | inactive: 0.732 | inactive: 0.74 | inactive: 0.626 |
| HFEFKYVINAI [MAOA_Y268_C266F_YF] | inactive: 1.19 | inactive: 1.81 | inactive: 2.05 | inactive: 1.7 | inactive: 1.26 | inactive: 1.7 |

| Binder | enrichment score [1] | enrichment score [2] | enrichment score [3] | enrichment score [4] | enrichment score [5] | enrichment score [6] |
| --- | --- | --- | --- | --- | --- | --- |
| ALEQKYWALGQ [MAP1A_Y1555] | inactive: 0.887 | inactive: 0.679 | inactive: 0.777 | inactive: 0.616 | inactive: 0.819 | inactive: 0.773 |
| WGTPEYDSVVA [MAP1A_Y1883_A1881P] | inactive: 0.976 | inactive: 0.854 | inactive: 1.07 | inactive: 0.698 | inactive: 0.723 | inactive: 0.727 |
| TRYDEYLEVTK [MAP1A_Y2217_H2214Y] | inactive: 0.87 | inactive: 0.817 | inactive: 1 | inactive: 1 | inactive: 0.923 | inactive: 1.08 |
| PRDSGYSYETI [MAP1B_Y1921_S1917R] | inactive: 0.474 | inactive: 0.619 | inactive: 0.671 | inactive: 0.72 | inactive: 0.449 | inactive: 1.17 |
| PSDSGYSFETI [MAP1B_Y1921_YF] | inactive: 0.74 | inactive: 0.689 | inactive: 0.996 | inactive: 0.734 | inactive: 0.745 | inactive: 0.848 |
| RLGVTYEQALA [MAP2_Y996_G991R] | inactive: 0.678 | inactive: 0.692 | inactive: 0.803 | inactive: 1.69 | inactive: 0.632 | inactive: 1.14 |
| NVTRKYTRQIL [MAP3K2_Y463] | inactive: 0.526 | inactive: 0.461 | inactive: 0.448 | inactive: 0.504 | inactive: 0.557 | inactive: 0.616 |
| NVTRKYSRQIL [MAP3K2_Y463_T464S] | inactive: 0.472 | inactive: 0.464 | inactive: 0.487 | inactive: 0.446 | inactive: 0.559 | inactive: 0.598 |
| TESALYGCTIL [MAP3K21_Y724_V728I] | inactive: 0.743 | inactive: 0.961 | inactive: 0.818 | inactive: 0.769 | inactive: 0.743 | inactive: 1.09 |
| QAINEYEKWLE [MAP9_Y603] | inactive: 0.892 | inactive: 0.812 | inactive: 0.776 | inactive: 0.866 | inactive: 0.826 | inactive: 0.677 |
| AEMTGYVVTRW [MAPK13_Y182] | inactive: 0.456 | inactive: 0.606 | inactive: 0.315 | inactive: 0.578 | inactive: 0.435 | inactive: 0.671 |
| WFKKFYDANYD [MAPRE2_Y158] | inactive: 0.62 | inactive: 0.589 | inactive: 0.447 | inactive: 0.493 | inactive: 0.612 | inactive: 0.703 |
| FFDANCDGKEF [MAPRE2_Y162_Y162C_YF] | inactive: 0.766 | inactive: 0.861 | inactive: 0.766 | inactive: 0.694 | inactive: 0.716 | inactive: 0.93 |
| KDQGGYAMHQD [MAPT_Y29_T30A] | inactive: 0.668 | inactive: 0.477 | inactive: 0.662 | inactive: 0.425 | inactive: 0.726 | inactive: 0.615 |
| SVQIVYKPVDL [MAPT_Y627] | inactive: 1.06 | inactive: 0.868 | inactive: 1.2 | active: 5.52 | inactive: 1.21 | inactive: 1.21 |
| NVQIVYKPVDL [MAPT_Y627_S622N] | inactive: 1.12 | inactive: 0.946 | inactive: 1.13 | active: 4.69 | inactive: 1.36 | inactive: 1.15 |
| CDIARYIVSQL [MAST2_Y461_P459A] | inactive: 0.883 | inactive: 1.16 | inactive: 0.886 | inactive: 0.969 | inactive: 1.11 | inactive: 1.52 |
| YRIGPYQPSVP [MATR3_Y784_N787S] | inactive: 0.739 | inactive: 0.756 | inactive: 0.893 | inactive: 0.621 | inactive: 0.75 | inactive: 0.927 |
